In all, about 43,000 compounds went through this assay and about 200 (0.47%) were called active. Roughly 12% stayed inconclusive and do not appear here. Calls come from the whole dose curve; as a rule, active = well fitted cell-killing curve with a large enough effect; inconclusive = small, poorly fitted or top-dose-only effect, or effect the other way; inactive = flat fitted curve, though single readings scatter. The list shows a part of the results.
Assay: Cell viability qHTS assay in S16 Pmp22-F2sN cells; note: nearly all actives have a fitted effect of over 65% in size
Conditions: S16 Pmp22-F2sN Schwann cells (luciferase reporters placed in the Pmp22 gene) viability, CellTiter-Glo, 24 h; series mostly up to 57.5 µM; activity change, negative = cytotoxicity: at the top concentration
Procedure, shortened: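 Seed 500-1,000 S16 Pmp22-F2sN cells per well in phenol-red-free DMEM with 10% heat-inactivated FBS; pin-add 23 nL compound; incubate 24 h at 37C; add CellTiter-Glo, wait 15 min protected from light; read luminescence.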
% is set by controls: 0 for no effect and ±100 for the full control effect.

Compound	activity change, negative = cytotoxicity
COc1ccc(-c2c(C)nn3c(N4CCC(C(=O)NCCC(C)C)CC4)cc(C)nc23)cc1OC	inactive: 6.43%
CC(C)c1ccc(C2c3c(-c4ccccc4O)n[nH]c3C(=O)N2CCc2ccccc2)cc1 (centres undefined)	inactive: -4.31%
CCCN1CCN(CC2=C(C(=O)OCC)C(c3ccc(Cl)cc3)NC(=O)N2)CC1 (centres undefined)	inactive: -9.33%
COc1ccc(Cl)cc1NC(=O)CCCn1c(=O)c2cccn2c2cccnc21	inactive: -0.906%
COc1ccc(CNC(=O)Cc2c(C)c3c(cc(C)c4c(C)coc43)oc2=O)cc1	inactive: 0.942%
COc1ccc(-c2nc(CCNC(=O)c3cc(OC)c(OC)c(OC)c3)cs2)cc1	inactive: 0.8%
COCCCNC(=O)c1ccc(NC(=O)N2CCCCc3ccccc32)cc1	inactive: 19.4%
Cc1c(C(=O)NCCN(C)C)oc2c1-c1nn(Cc3ccccc3Cl)cc1CC2	inactive: -3.43%
CCOC(=O)c1ccc(Nc2nc(C)cc(C)n2)cc1	inactive: -4.11%
CC(Sc1nc(-c2ccccc2)c(C#N)c(=O)[nH]1)C(=O)Nc1ccc(F)cc1 (centres undefined)	inactive: 4.09%
COc1ccc(N(CC(=O)N2CCN(c3cc(C)ccc3C)CC2)S(=O)(=O)c2c(C)noc2C)cc1	inactive: 1.71%
COc1ccccc1-c1c(C)nn2c(N3CCN(c4ccc(Cl)cc4)CC3)cc(C)nc12	inactive: -2.83%
COC(=O)c1ccc2nc(C)cc(Nc3ccc(O)cc3)c2c1	inactive: 2.48%
CC(Sc1ncc(S(=O)(=O)c2ccc(C(C)C)cc2)c(N)n1)C(=O)Nc1ccccc1 (centres undefined)	inactive: 5.13%
COc1ccc(NC(=O)Cn2c(=O)n(-c3ccc(Cl)cc3)c(=O)c3c(C)c(C(=O)N(C)C)sc32)cc1Cl	inactive: -6.51%
Cc1ccc(CSc2nc(=O)c3c(C)cc(C)nc3n2C2CC2)cc1	inactive: -20.6%
O=C(NC1CC(=O)N(c2ccccc2)C1)C1CCCC1 (centres undefined)	inactive: 3.57%
Cc1ccc2c(c1)c(=O)c1ccccc1n2CCCC(=O)Nc1ccc(F)cc1F	inactive: -21.4%
O=S(=O)(c1ccccc1)c1nc(-c2cccc(Cl)c2)oc1NCc1ccccc1	inactive: 13%
COc1ccc(Br)c2c1-c1nc(NC(=O)c3ccccc3SC)sc1C2	inactive: 12%
CCOc1ccc(N2CC(c3nc4ccccc4n3CCCOc3ccc(OC)cc3)CC2=O)cc1 (centres undefined)	inactive: -17.6%
COCCNC(=O)CSc1nnc(-c2ccc(OC)c(OC)c2)c(-c2ccc(OC)c(OC)c2)n1	inactive: -15.8%
Cc1cccc(C2NC(=O)c3c(sc4c3CCN(C)C4)N2)c1O (centres undefined)	inactive: -2.06%
CCOC(=O)c1ccc(NC2=CC(c3ccc(Br)cc3)N(c3ccc(C(=O)OCC)cc3)C2=O)cc1 (centres undefined)	inactive: 7.37%

Compound	activity change, negative = cytotoxicity
COC(=O)c1cc(Cl)c(NC(=O)/C=C/c2ccc(Cl)cc2Cl)cc1OC	inactive: 1.58%
CCOC(=O)c1ccc(NC(=O)C(=O)NCc2ccco2)cc1	inactive: 3.45%
COc1cccc(Cc2nc3ccccc3nc2SCC(=O)N2CCc3ccccc32)c1	inactive: 7.67%
CCOc1ccccc1NC(=O)C1CCN(S(=O)(=O)c2ccc(Br)cc2)CC1	inactive: -3.22%
Cc1ccc(-n2nc(C(=O)N3CCCCC3C)c(=O)n(C)c2=O)cc1 (centres undefined)	inactive: 4.41%
Cc1nn(CCCC(=O)NCc2ccccc2)c(=O)c2c1sc1ccccc12	inactive: 14.1%
CC1CN(C(=O)CCC(=O)NCc2cccs2)c2ccccc2O1 (centres undefined)	inactive: 3.74%
COc1ccc(NC(=O)c2c(NCc3ccc(C)o3)sc3c2CCC(C)C3)cc1 (centres undefined)	inactive: -23.2%
Cc1ccc(S(=O)(=O)c2cn(C)c3cc(N4CCN(c5ccccc5)CC4)c(F)cc3c2=O)cc1	inactive: -4.91%
CCOC(=O)N1CCc2c(sc3c2c(=O)n(Cc2ccccc2)c(=O)n3Cc2cccc(Cl)c2)C1	inactive: -12.9%
COc1cc(NC(=O)C2=C(C)Nc3nnnn3C2c2ccc(SC)cc2)c(OC)cc1Cl (centres undefined)	inactive: 0.0199%
COc1ccc(NC(=O)c2c(NC(=O)COc3ccc(Cl)cc3)sc3c2CCCCC3)cc1	inactive: 20.5%
CCOC(=O)CCN(Cc1ccccc1)S(=O)(=O)c1csc(C(N)=O)c1	inactive: -5.07%
CCN(C(=O)Cn1nc2c3cc(F)ccc3n(Cc3cccc(C)c3)cc-2c1=O)c1cccc(C)c1	inactive: 5.84%
O=C(NCCCN1CCN(c2ccc(F)cc2)CC1)c1cc2c(s1)-c1ccccc1OC2	inactive: -10.6%
CCOC(=O)c1ccc2c(c1)N(CC(=O)Nc1cc(F)ccc1F)C(=O)c1ccccc1S2	inactive: 14.6%
CSc1ccccc1NC(=O)C1=CC(c2ccc3c(c2)OCO3)=NS(=O)(=O)N1C	inactive: -11.1%
CC1=C(C(N)=O)C(c2cccc(C)c2)n2nc(-c3ccc(Cl)cc3)nc2N1 (centres undefined)	inactive: -15.8%
COc1ccc(Cn2nnc3c(=O)[nH]c(C4CCCN(C(=O)c5ccccc5Cl)C4)nc32)cc1OC (centres undefined)	inactive: 2.15%
Cc1ccc(C)c(NC(=O)C(=O)NCC(c2cccnc2)N2CCN(c3ccc(F)cc3)CC2)c1 (centres undefined)	inactive: -28.4%
N#Cc1cc2c(=O)n3ccccc3nc2n(-c2nnc(SCc3ccc(F)cc3)s2)c1=O	inactive: -14%
COc1cc(OC)c(NC(=O)N2CCOc3ccc(C)cc32)cc1Cl	inactive: 3.16%
COc1ccc(-c2[nH]c(-c3ccc(OC)c(OC)c3)nc2SCC(=O)Nc2ccccc2)cc1	inactive: -2.72%
Cc1cccc(NC(=O)c2oc3ccc(S(=O)(=O)N4CCCCC4)cc3c2C)c1C	inactive: -9.66%

Compound	activity change, negative = cytotoxicity
O=C(c1cccc(Cl)c1)N1CCC(c2nc3c(nnn3Cc3ccc(F)cc3F)c(=O)[nH]2)CC1	inactive: -26.1%
COc1cc(C(=O)Nc2ccccc2OCc2cc(=O)n3cc(C)sc3n2)cc(OC)c1OC	inactive: 0.328%
COc1ccc(C(=O)c2cn(Cc3ccccc3F)c3ccc(F)cc3c2=O)cc1	inactive: -6.43%
CCOc1ccccc1C(=O)N(Cc1ccc(N(C)C)cc1)Cc1ccco1	inactive: 1.94%
Cn1ccc2cc(S(=O)(=O)N3CCCN(C(=O)Nc4ccc(Br)cc4)CC3)ccc21	inactive: -13.6%
COc1ccc(CCNC(=O)CSc2nnc(-c3ccc(C)cc3)c(-c3ccc(C)cc3)n2)cc1OC	inactive: -0.88%
Cc1ccc(-c2noc(-c3ccc(NCC4CCCO4)c([N+](=O)[O-])c3)n2)cc1 (centres undefined)	inactive: 10.6%
CCCCOc1cccc(C(=O)N(Cc2ccc(Cl)cc2)C2CCS(=O)(=O)C2)c1 (centres undefined)	inactive: -18.3%
COc1ccccc1NC(=O)N1CC=C(c2c[nH]c3ccccc23)CC1	inactive: 21.6%
CCOc1ccc(C(=O)NCCS(=O)(=O)N2CCN(c3cccc(Cl)c3)CC2)cc1	inactive: -9.76%
Cc1cc(=O)[nH]c2nnc(SCCC(C)C)n12	inactive: 4.52%
COc1cccc(C2=NN(S(C)(=O)=O)C(c3cn(-c4ccccc4)nc3-c3cccs3)C2)c1 (centres undefined)	inactive: -1.03%
COc1ccc(CNC(=O)CN(C)c2nn3c(=O)cc(C)nc3s2)cc1	inactive: 13%
CC(=O)c1ccc(N2CCN(C(=O)CS(=O)(=O)c3cccc4nsnc34)CC2)cc1	inactive: -4.42%
CCOC(=O)CC(NC(=O)CCc1c(C)nc2cc(-c3ccccc3)nn2c1C)c1ccc(C)cc1 (centres undefined)	inactive: -2.46%
N#Cc1ccccc1NC(=O)C(=O)NCC(c1cccnc1)N1CCc2ccccc21 (centres undefined)	inactive: -24.6%
COc1cc(OC)c(NC(=O)C(C)n2nc(-c3ccc(C)cc3)c3c(c2=O)CCCC3)cc1Cl (centres undefined)	inactive: -27.7%
O=C(Nc1cc(F)ccc1F)c1cnn2c(C(F)F)cc(-c3ccccc3)nc12	inactive: -5.44%
COC(=O)c1ccc(NC(=O)CSc2nc3cc4ccccc4cc3[nH]2)cc1	inactive: -14.2%
Cc1ccc(S(=O)(=O)c2nnn3c2nc(N2CCN(c4cccc(C)c4C)CC2)c2ccccc23)cc1C	inactive: -1.27%
COc1ccccc1-c1cc2nc(C)c(CCC(=O)NC3CCCCC3)c(C)n2n1	inactive: -1.68%
Cc1ccc(NC(=O)C2CCCN(c3ncnc4onc(C)c34)C2)cc1Cl (centres undefined)	inactive: -8.91%
CCn1cc(C(=O)NCc2ccccc2Cl)c(=O)c2cc(S(=O)(=O)N3CCCCCC3)ccc21	inactive: 8.29%
CCOc1ccc(Nc2oc(-c3ccc(COc4ccc(C)cc4)o3)nc2C#N)cc1	inactive: 1.43%

Compound	activity change, negative = cytotoxicity
Cc1ccc(-c2nc(CNC(=O)NC3CCCCC3)c(C)o2)cc1	inactive: -18.6%
COc1ccc(CNc2nc(-c3ccco3)nn2C(=O)c2ccccc2C)cc1	inactive: 7.79%
CC(=O)c1cccc(NC(=O)Nc2cc3c(cc2N2CCCC2)n(C)c(=O)n3C)c1	inactive: -2.12%
CCc1ccc(C(=O)Nc2cccc(-c3nc4cc(C(C)C)ccc4o3)c2)cc1	inactive: 20.3%
Cc1ccc(Cl)cc1NC(=O)c1ccc2nc(CCc3ccccc3)oc2c1	inactive: 0.953%
Cc1ccc(NC(=O)Cn2c(=O)cc(-c3ccccc3)c3c(C)nn(C)c32)c(Cl)c1	inactive: 7.12%
CCOC(=O)c1sc2cccc(F)c2c1S(=O)(=O)Nc1ccccc1F	inactive: 12.7%
Cc1ccc(C)c(NC(=O)Cn2c(=O)n(CC(=O)NCCc3ccccc3)c(=O)c3ccccc32)c1	inactive: -11.5%
O=C(CSc1nnc(-c2ccc(Cl)cc2)c(-c2ccc(Cl)cc2)n1)NC1CCCC1	inactive: -12.6%
COc1ccc(NC(=O)c2nnn(CC(=O)Nc3cc(C)cc(C)c3)c2N)c(OC)c1	inactive: 3.59%
CCN(C(=O)c1cc(S(=O)(=O)N2CCCC2)cn1C)c1ccc(OC)cc1	inactive: 2.8%
COc1ccc(Cn2c(SCc3ccc(C(=O)NCc4cccs4)cc3)nc3ccncc32)cc1	inactive: -20.6%
O=S(=O)(c1ccccc1)c1nc(-c2ccco2)oc1SCc1ccc(F)cc1	inactive: -2.66%
CCCCC(=O)Nc1ccc(C(=O)OCc2cc(=O)n3ccsc3n2)cc1	inactive: 6.75%
Cc1cccc(N2C(=O)N(Cc3ccc(C(C)(C)C)cc3)c3ccccc3S2(=O)=O)c1	inactive: 15.2%
CCOC(=O)c1c(NC(=O)C(C)Sc2cn(CCNC(=O)c3ccc(OC)cc3)c3ccccc23)sc2c1CCC2 (centres undefined)	inactive: -0.119%
Cc1ccc(CSCCNC(=O)CN(c2cccc(C)c2C)S(=O)(=O)c2ccccc2)cc1	inactive: -5.87%
O=C(NCc1ccc(Cl)cc1)c1cnc(N2CCOCC2)c2ccccc12	inactive: -0.354%
COc1ccccc1NC(=O)C1=C(C)Nc2nc(SCC(=O)c3ccc(C)cc3)nn2C1c1ccc(F)cc1 (centres undefined)	inactive: -5.77%
Cc1ccccc1CNC(=O)c1ccc(Cn2c(SCc3ccccc3)nc3cccnc32)cc1	inactive: -26.5%
CC1CCCN(S(=O)(=O)c2cc(C(=O)NCCc3ccccc3)n(C)c2)C1 (centres undefined)	inactive: 16.5%
COc1ccc(CNC(=O)c2ccc3c(c2)CCN3S(=O)(=O)c2ccccc2)cc1	inactive: -0.678%

— PubChem BioAssay AID1508642 (National Center for Advancing Translational Sciences (NCATS), 2021)
